# Measured values: the supplement of paper PMC7826260
# This is one part of the list. One pool of 16,384 single-stranded DNAs met each Rep nickase domain in vitro for 1 h at 37 °C with 3 µM enzyme; only the middle of the 90-letter strands is printed. A value is the log2 ratio of uncut reads to the pool without enzyme; strong cutting gives strongly negative numbers. There is no active / inactive call. Counts are relative to all reads, so uncut sequences can rise above 0 when many others are cut.
# How the values were obtained:
# Assay in all cases: uncleaved DNA left, log2 of reads against the no-enzyme library (log2 ratio); higher = less cleavage (more negative = more Rep cleavage of the k-mer); sequences stand for … in CTCGTCCG…ACCGGAGA
# [1] = test system: T1, Rep nickase domain of Muscovy duck circovirus
# T1 sequence (residues 1-111, tag not shown): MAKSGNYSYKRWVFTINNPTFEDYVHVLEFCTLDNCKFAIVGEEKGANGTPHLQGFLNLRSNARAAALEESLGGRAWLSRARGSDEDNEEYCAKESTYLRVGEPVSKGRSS
# Procedure: (§1)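 A pool of 90-nt single-stranded DNAs with seven random bases just before the constant AC of the nick site (name = the seven bases) was cut by 3 µM recombinant His6-SUMO-tagged Rep nickase domain (300 nM DNA, 50 mM HEPES pH 8.0, 50 mM NaCl, 1 mM MnCl2, 1 h, 37 °C, three replicates). Uncut DNA was amplified and sequenced.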
# [2] = test system: T2, Rep nickase domain of banana bunchy top virus
# T2 sequence (residues 1-94, tag not shown): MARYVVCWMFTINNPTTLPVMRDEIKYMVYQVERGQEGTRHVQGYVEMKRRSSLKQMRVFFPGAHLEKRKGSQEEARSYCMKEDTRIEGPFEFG
# Procedure: as §1
# [3] = test system: T3, Rep nickase domain of cabbage leaf curl virus
# T3 sequence (residues 1-116, tag not shown): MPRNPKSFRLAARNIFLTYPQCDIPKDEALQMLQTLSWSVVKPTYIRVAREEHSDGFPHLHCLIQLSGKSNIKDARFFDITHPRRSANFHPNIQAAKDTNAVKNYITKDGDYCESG
# Procedure: as §1
# [4] = test system: T4, Rep nickase domain of chickpea chlorotic dwarf virus
# T4 sequence (residues 1-124, tag not shown): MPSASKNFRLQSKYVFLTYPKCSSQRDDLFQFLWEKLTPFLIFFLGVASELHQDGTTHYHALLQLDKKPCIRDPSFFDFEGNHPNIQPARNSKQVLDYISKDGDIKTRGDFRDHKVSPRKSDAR
# Procedure: as §1
# [5] = test system: T5, Rep nickase domain of faba bean necrotic yellows virus
# T5 sequence (residues 1-98, tag not shown): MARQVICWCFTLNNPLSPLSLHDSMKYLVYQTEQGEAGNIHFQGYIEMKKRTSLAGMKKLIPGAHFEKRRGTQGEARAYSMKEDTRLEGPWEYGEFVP
# Procedure: as §1
# [6] = test system: T6, Rep nickase domain of maize striate mosaic virus
# T6 sequence (residues 1-117, tag not shown): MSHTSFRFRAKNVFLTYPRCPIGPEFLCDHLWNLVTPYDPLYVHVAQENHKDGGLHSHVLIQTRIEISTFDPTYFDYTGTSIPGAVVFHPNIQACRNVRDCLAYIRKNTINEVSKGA
# Procedure: as §1
# [7] = test system: T7, Rep nickase domain of porcine circovirus 2
# T7 sequence (residues 2-116, tag not shown): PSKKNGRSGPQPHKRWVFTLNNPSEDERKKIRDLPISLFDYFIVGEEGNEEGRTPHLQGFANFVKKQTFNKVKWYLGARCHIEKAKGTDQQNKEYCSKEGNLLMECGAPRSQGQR
# Procedure: as §1
# [8] = test system: T8, Rep nickase domain of tomato golden mosaic virus
# T8 sequence (residues 1-124, tag not shown): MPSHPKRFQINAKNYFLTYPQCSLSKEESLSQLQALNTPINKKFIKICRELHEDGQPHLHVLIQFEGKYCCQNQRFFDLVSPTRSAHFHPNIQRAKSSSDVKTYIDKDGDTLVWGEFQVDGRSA
# Procedure: as §1
# [9] = test system: T9, Rep nickase domain of tomato yellow leaf curl virus
# T9 sequence (residues 1-136, tag not shown): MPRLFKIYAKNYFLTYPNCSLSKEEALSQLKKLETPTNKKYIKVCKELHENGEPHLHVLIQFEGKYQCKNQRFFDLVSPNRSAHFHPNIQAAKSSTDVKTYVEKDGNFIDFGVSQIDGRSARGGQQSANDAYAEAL
# Procedure: as §1
# [10] = test system: T10, Rep nickase domain of wheat dwarf virus
# T10 sequence (residues 1-137, tag not shown): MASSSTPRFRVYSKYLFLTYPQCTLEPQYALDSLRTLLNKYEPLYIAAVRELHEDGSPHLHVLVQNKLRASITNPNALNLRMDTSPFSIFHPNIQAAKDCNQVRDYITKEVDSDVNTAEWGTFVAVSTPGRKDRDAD
# Procedure: as §1
Sequence,uncleaved DNA left (log2) [1],uncleaved DNA left (log2) [2],uncleaved DNA left (log2) [3],uncleaved DNA left (log2) [4],uncleaved DNA left (log2) [5],uncleaved DNA left (log2) [6],uncleaved DNA left (log2) [7],uncleaved DNA left (log2) [8],uncleaved DNA left (log2) [9],uncleaved DNA left (log2) [10]
GAGCCAA,0.0704,0.0877,0.307,0.788,-0.0881,0.823,-0.161,-0.00741,0.116,0.188
TAATATC,-0.112,-0.155,-4,-3.46,-0.066,-3.48,-0.908,-3.94,-0.382,-3.88
CTACGTT,-0.000469,-0.224,-0.99,-2.77,0.0359,-1.01,-0.662,-0.231,-0.0229,-0.742
ATCCAAT,-0.00375,0.0128,-0.0197,-0.405,-0.0728,-0.557,-0.416,-0.00514,0.00746,-0.00628
GGACCAT,0.0615,0.0433,0.882,1.93,-0.0654,2.3,0.142,-0.0633,0.0536,0.212
CTCTACT,-3.15,-0.666,-0.735,-2.74,-0.0384,-0.676,-3.7,-0.00611,-0.111,-0.362
TAAGTAT,0.114,-0.077,-2.92,-2.33,0.0958,0.909,0.0432,-0.291,-0.149,-1.15
AGATCCT,-0.0671,0.145,0.83,1.38,0.0912,2.16,-0.194,0.0521,0.0397,0.174
AGCGTCA,-0.0365,0.0891,-0.0232,0.279,0.0479,1.1,-0.232,0.0807,-0.0717,0.0444
GCGGGTT,-0.0521,0.0461,0.336,0.739,0.0194,1.47,0.03,0.0119,-0.0719,-0.00164
GCAAAAG,0.00692,-0.0652,-0.752,-0.355,0.0577,-1.1,0.233,0.0464,-0.00302,-0.0732
GTGTCCA,-0.00156,0.104,0.263,0.908,-0.017,1.79,0.0843,0.114,0.0819,0.141
ACATATA,0.1,0.0686,-0.195,-1.39,0.111,-0.744,0.101,0.172,0.119,0.0792
AAGAATA,0.0893,-0.0352,-0.0961,-1.01,0.00667,0.526,-1.13,0.118,-0.106,0.0729
GGTGAGT,-0.122,-0.00686,0.607,1.36,-0.0169,1.81,0.0483,-0.103,-0.0975,-0.0646
CTGACTT,-0.0345,-0.12,-0.0341,-0.458,-0.064,0.261,-0.019,0.043,0.0427,0.055
AACTGTC,0.0468,-0.11,-0.0524,0.147,-0.0285,0.107,-0.24,-0.0877,0.00168,0.05
CTCGATG,-0.0667,-0.0892,-0.515,-0.147,-0.234,-0.76,0.0106,-0.148,-0.0934,-0.12
GACGCAT,-0.0217,0.0394,0.418,0.617,-0.02,1.32,0.147,-0.1,0.00244,0.105
AGTTCGT,0.0974,0.00533,-0.399,-0.674,0.0487,-1.01,-2.38,0.0145,0.0533,-0.0213
ACGCCTC,-0.153,-0.0854,0.0483,0.23,-0.194,0.634,-0.02,-0.0444,-0.115,0.0151
AACCGAA,0.163,0.0212,-0.0321,-0.339,0.0146,-0.618,0.00583,-0.0393,0.0754,0.116
GGCAAAA,0.145,0.208,0.649,1.5,0.00695,1.79,0.32,0.166,0.209,0.248
TCCTAAA,0.145,0.148,0.324,0.0183,0.189,-0.318,0.134,0.173,0.129,0.164
CTCCCAT,-0.0201,0.0308,0.126,-0.658,-0.00957,-0.407,-0.157,-0.215,0.165,0.0443
GTAGTCT,-0.0939,-0.0333,0.17,0.591,-0.121,1.67,-0.124,-0.00376,-0.1,0.0327
GCTCTCT,-0.0997,-0.0328,-0.0779,-1.14,-0.173,-0.0415,-0.303,-0.0718,-0.115,0.00291
CATGCAC,-0.00684,-0.143,-0.691,-0.708,0.0426,-1.18,0.0553,-0.141,-0.0558,-0.111
TGGGTGG,0.12,-0.192,0.168,0.468,-0.0512,0.37,0.0255,0.0112,-0.111,-0.0718
GGTGCTC,-0.0166,-0.0876,0.52,1.22,-0.0481,1.85,0.0611,-0.0846,0.11,0.022
